Data as given in PubChem BioAssay AID485294 (National Center for Advancing Translational Sciences (NCATS), 2010).
Hit rate of the full screen: of about 370,000 compounds, about 150 (0.041%) were called active. The shares of active, inactive and inconclusive entries below differ from those in the screen. The call rests on the fitted dose curve; in most records, active means well fitted inhibition curve with a large enough effect; inconclusive means small, poorly fitted or top-dose-only effect; inactive means flat fitted curve, though single readings scatter. No potency is given beside an inconclusive call; the fits are too rough.

Molecular target: Beta-lactamase (Escherichia coli (strain K12)) (UniProt P00811)
UniProt P00811, sequence (P00811 whole entry, looked up): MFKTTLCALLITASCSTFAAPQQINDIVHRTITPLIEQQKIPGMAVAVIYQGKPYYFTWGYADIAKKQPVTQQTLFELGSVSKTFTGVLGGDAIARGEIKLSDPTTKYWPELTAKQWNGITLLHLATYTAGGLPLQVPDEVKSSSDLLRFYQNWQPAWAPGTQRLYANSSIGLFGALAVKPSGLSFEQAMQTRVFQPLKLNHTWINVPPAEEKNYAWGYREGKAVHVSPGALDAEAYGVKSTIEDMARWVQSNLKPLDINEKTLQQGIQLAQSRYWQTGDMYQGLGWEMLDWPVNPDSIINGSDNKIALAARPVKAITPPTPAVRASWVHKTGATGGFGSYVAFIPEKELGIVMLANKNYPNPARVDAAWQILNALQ
Assay: qHTS Inhibitors of AmpC Beta-Lactamase (assay with detergent); further: nearly all actives have a fitted effect of over 25% in size
Conditions: AmpC hydrolysis of nitrocefin, absorbance 480 nm, 0.01% Triton; series mostly up to 114 µM
How it was run: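 20 mM phosphate pH 7.0 + 0.01% (detergent screen) or 0.0001% Triton X-100; 5.3 nM AmpC reagent; cpd preinc 15 min RT; nitrocefin (800 uM stock) to start; A480 q20 s × 4 min; Activity was normalised to no-enzyme and no-compound control wells.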
Potency means the concentration at half of the fitted maximal effect; tags describe the fitted curve by direction and shape.

SMILES | Potency
CCOc1ccc(NS(=O)(=O)c2c(C)nc3sc(CC)nn3c2=O)cc1 | inconclusive [inhibitor, partial curve, poor fit]
N#Cc1c2n(c3c(=S)nc[nH]c13)CCCCC2 | inconclusive [inhibitor, full curve]
COc1ccc(C)cc1-n1nnnc1SCC(=O)NC1CCS(=O)(=O)C1 (centres undefined) | inconclusive [inhibitor, full curve, poor fit]
COc1ccc(N2C(=O)CC(N3CCCCC3)C2=O)cc1 (centres undefined) | inconclusive [inhibitor, single point]
O=C(OCC(=O)N1CCCc2ccccc21)c1ccc(Cl)nc1 | inactive
Cc1c(CC(=O)O)c(=O)oc2cc3c(cc12)CCC(C)(C)O3 | inactive
CCOC(=O)C1(CCOc2ccccc2)CCN(Cc2cccc(OC)c2OC)CC1 | inactive
CCc1cc(=O)oc2cc(OC(C)C(=O)O)c(Cl)cc12 (centres undefined) | inconclusive [inhibitor, full curve]
CCN1/C(=C\C(C)=O)Sc2ccc(OC)cc21 | inconclusive [inhibitor, single point]
CCOC(=O)c1cc(-c2nnc(SCC(=O)Nc3ccc(F)cc3)o2)c(C)nc1C | inconclusive [inhibitor, full curve, poor fit]
Cc1cc(Cl)ccc1NC(=O)CCC(=O)N/N=C/c1cccnc1 | inactive
CCOC(=O)/C(=N\Nc1cc(C(F)(F)F)ccc1Cl)N(CC)CC | inconclusive [inhibitor, single point]
O=C(NCCN1CCOCC1)c1ccc2c(c1)N(Cc1ccccc1)CCS2 | inconclusive [inhibitor, full curve, poor fit]
c1ccc(COCC2CCNCC2)cc1 | inconclusive [inhibitor, partial curve, poor fit]
CC(=O)Nc1ccc(NC(=O)C(NS(=O)(=O)c2ccc3c(c2)OCCO3)C(C)C)cc1 (centres undefined) | inconclusive [inhibitor, full curve, poor fit]
COC(=O)C(CCSC)NC(=O)CNS(=O)(=O)c1ccc(F)cc1 (centres undefined) | inconclusive [inhibitor, full curve, poor fit]
CCOC(=O)c1cc(C(=O)c2cc(F)ccc2O)coc1=N | inconclusive [inhibitor, full curve, poor fit]
Cc1ccc(C)c(N2CCN(C(=O)c3c(C)oc4nc(C)nc(N5CCOCC5)c34)CC2)c1 | inactive
CCc1ccc(NC(=O)c2cnn3ccccc23)cc1 | inconclusive [inhibitor, full curve, poor fit]
CCOc1ccc(N(CC(=O)OC)S(=O)(=O)c2ccc3c(c2)n(C)c(=O)c(=O)n3C)cc1 | inconclusive [inhibitor, full curve, poor fit]
CC(=O)Nc1cccc(C(=O)OCC(=O)NCc2cc(C)c(O)c(C)c2)c1 | inconclusive [inhibitor, full curve, poor fit]
Cc1cc(C)n(-c2nc(-n3nc(C)cc3C)c3c4c(sc3n2)COC(C)(C)C4)n1 | inactive

SMILES | Potency
O=C1/C(=C/c2ccc(F)cc2)SC(=S)N1Nc1ncc(C(F)(F)F)cc1Cl | inconclusive [inhibitor, full curve, poor fit]
Cc1ccc(C(=O)N2CCN(c3ccc(NC(=O)c4cccnc4)cc3)CC2)cc1 | inconclusive [inhibitor, full curve]
CCN(CC)S(=O)(=O)c1cccc(-c2n[nH]c(=S)n2/N=C/c2ccc(OC)cc2)c1 | inconclusive [inhibitor, partial curve, poor fit]
CCOC(=O)C1CCN(C(=O)Nc2ccccc2Cl)CC1 | inconclusive [inhibitor, partial curve, poor fit]
CN(Cc1c(F)cccc1Cl)C(=O)CNC(=O)c1sc2ccccc2c1Cl | inconclusive [inhibitor, full curve, poor fit]
CCOc1ccc(OCc2ccc(C(=O)N3CCCC3)o2)cc1 | inconclusive [inhibitor, full curve, poor fit]
CCc1cccc(NC(=O)CC(c2ccc(OC)cc2)N2Cc3ccccc3C2=O)c1 (centres undefined) | inactive
O=C(Nc1ccccn1)NC1CCS(=O)(=O)C1 (centres undefined) | inconclusive [inhibitor, full curve, poor fit]
CCOc1ccc(NC(=O)N(CCN(C)C)C(C)c2ccncc2)cc1 (centres undefined) | inactive
COc1cccc(NC(=O)CN(C)C(=O)CSc2nc(C)cc(C)n2)c1 | inconclusive [inhibitor, full curve, poor fit]
CC(Sc1nnc(COc2ccc(Cl)cc2)n1-c1ccccc1)C(=O)O (centres undefined) | inconclusive [inhibitor, full curve, poor fit]
CCOC(=O)COc1ccc2c(c1)C(=O)CC1(CCCCC1)O2 | inconclusive [inhibitor, full curve, poor fit]
O=[N+]([O-])c1ccccc1CNC1CCCc2ccccc21 (centres undefined) | inconclusive [inhibitor, partial curve, poor fit]
O=C(CCCN1CCC(NC(=O)c2ccccc2)CC1)c1ccc(Cl)cc1 | inconclusive [inhibitor, full curve, poor fit]
COc1ccc(OCC(=O)NCc2ccc3c(c2)CCN3C(=O)c2cccc(C)c2)cc1 | inactive
CC1(C(=O)NNC(=S)NCC2CCCO2)CC1(Cl)Cl (centres undefined) | inconclusive [inhibitor, full curve, poor fit]
CCC(=O)N1CCN(C(=O)c2ccccc2)CC1 | inconclusive [inhibitor, full curve]
COc1ccccc1C(c1nnnn1CC1CCCO1)N1CCC(C(N)=O)CC1 (centres undefined) | inconclusive [inhibitor, full curve, poor fit]
O=C(Nc1nc2cc(Cl)ccc2s1)C1CCCN(S(=O)(=O)c2cccc3cccnc23)C1 (centres undefined) | inconclusive [inhibitor, partial curve]
Cc1cccc(-c2ccc3ncnc(NCc4cc(C)cs4)c3c2)c1 | inactive
COc1ccc2c(c1)c(CC(=O)Nc1c(C)cccc1C)c(C)n2C(=O)c1ccc(Cl)cc1 | inactive
c1cncc(-c2noc(-c3cccc4ccccc34)n2)c1 | inactive

SMILES | Potency
O=C(/C=C/c1ccc(S(=O)(=O)N2CCOCC2)cc1)NC(=S)Nc1ccc(N2CCOCC2)cc1 | inconclusive [inhibitor, partial curve, poor fit]
Cc1nnc2c(N(C)S(=O)(=O)c3ccccc3)nc3ccccc3n12 | inconclusive [inhibitor, full curve, poor fit]
O=C(NC1CCCC1)c1cc2nc(-c3ccco3)cc(C(F)(F)F)n2n1 | inconclusive [inhibitor, full curve, poor fit]
CC1=C(C(=O)N2CCOCC2)C(c2ccccc2F)C2=C(CCCC2=O)N1 (centres undefined) | inactive
CC(=O)Nc1ccc(NC(=O)CCC(=O)NCCO)cc1 | inconclusive [inhibitor, full curve]
CS(=O)(=O)N(Cc1ccccc1)c1ccccc1C(=O)N1CCN(c2ccccc2)CC1 | inconclusive [inhibitor, partial curve]
O=C(NCCSCc1ccccc1)c1cc(S(=O)(=O)N2CCOCC2)ccc1F | inconclusive [inhibitor, full curve, poor fit]
COc1cc(C)c(C(C)C)cc1S(=O)(=O)n1cnc(C)c1 | inconclusive [inhibitor, full curve, poor fit]
Cc1ccc(-c2nc(N)s[n+]2-c2ccccc2)cc1 | inconclusive [inhibitor, full curve]
O=C1c2ccccc2NC(c2cn[nH]c2-c2ccccc2)N1O (centres undefined) | inconclusive [inhibitor, full curve, poor fit]
COc1c[nH]n(C2CCCCC2)c(=O)c1=O | inconclusive [inhibitor, full curve]
CCOc1cc(C(=O)OCc2ccc(C(=O)OC)o2)cc(Br)c1OC | inconclusive [inhibitor, partial curve]
Cc1ccc(OCCn2c(C3CC(=O)N(Cc4ccc(F)cc4)C3)nc3ccccc32)c(C)c1 (centres undefined) | inactive
COc1cccc(OCC(O)CN2C(C)CCCC2C)c1 (centres undefined) | inconclusive [inhibitor, single point]
Cc1ccc(-c2nc(SCC(N)=O)c(C#N)c3c2CCCC3)cc1 | inconclusive [inhibitor, full curve, poor fit]
Cc1onc(-c2c(Cl)cccc2Cl)c1C(=O)N1CCSCC1 | inconclusive [inhibitor, single point]
COc1ccc(C2CC(C(F)(F)F)n3ncc(C(=O)Nc4cccc(O)c4)c3N2)cc1OC (centres undefined) | inconclusive [inhibitor, partial curve, poor fit]
COc1ccc(C(=O)N2CCN(C(=O)CC(C)C)CC2)cc1OC | inconclusive [inhibitor, full curve, poor fit]
Cc1ccnc(SCC(=O)O)n1 | inconclusive [inhibitor, partial curve]
CC(C)Cc1ccc(CN2CCCC(NC(=O)CCN3CCCCC3=O)C2)cc1 (centres undefined) | inconclusive [inhibitor, full curve, poor fit]
